The source of these data is the supplement of paper PMC10126150.

Sequences with one replicate were seen in a single cluster, so their values are uncertain.

This series has as its system ATP. Description: switch fluorescence ratio, 500 uM ATP over buffer (Cy3 cluster intensity, sum of 5 cycles each) (fold (ratio)); higher = stronger signal-on switching upon ATP binding; sequences stand for … in TCGTCGGCAGCGTCAGATGTGTATAAGAGACAGTTTTTTTTTTTTTTTTTTTTTTTTT…TC. Conditions: aptamer strand: ATP DNA aptamer (quencher-CACCTGGGGGAGTATTGCGGAGGAAGG + anchor), 100 nM annealed; ATP concentration: 500 uM; one replicate. The method, boiled down: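 Values give the fluorescence ratio for each switch-domain sequence, averaged from per-cluster ratios of summed target-cycle to summed buffer-cycle Cy3 intensity. The Cy3-labelled switching-strand clusters sat on a modified Illumina MiSeq flow-cell, were annealed to 100 nM quencher-labelled ATP aptamer, and were imaged in selection buffer, then after 15 min with 500 uM ATP at 22 °C. Five cycles ran with NaOH stripping and re-annealing between them, and clusters outside 100-1000 RFU were excluded.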
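Note: ATP exposure 15 min at 22 °C before imaging.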

In the case of TCGGCGTGCG, the switch fluorescence ratio stood at 0.982.

Consider GCGACTGAGT, for which the switch fluorescence ratio worked out at 0.997.

With TCTCGGATTC, the switch fluorescence ratio was 1.07.

As to GACGCTTGGC, the switch fluorescence ratio worked out at 1.36.

In the case of TATAGTTTT, the switch fluorescence ratio is 0.998.

Turning to AGATGACAGT, the switch fluorescence ratio is 1.04.

Take TTACCACGGG: the switch fluorescence ratio turned out to be 0.958.

With ATTATTTCT, the switch fluorescence ratio came to 0.961.

On to GAATTCTCTG, for which the switch fluorescence ratio came out at 0.989.

Regarding TAATCATGGC, the switch fluorescence ratio came out at 1.02.

In the case of CAGGTATCGG, the switch fluorescence ratio turned out to be 1.02.

On to GTTTGTTTGC, for which the switch fluorescence ratio is 1.01.

On to AGCCTCATTC, for which the switch fluorescence ratio worked out at 0.98.

ATTCGTCGTG: the switch fluorescence ratio is 0.992.

Turning to TATGCATCAA, the switch fluorescence ratio came to 0.979.

With GTTGGTTAG, the switch fluorescence ratio was determined as 0.962.

As to TTTTATTAAC, the switch fluorescence ratio came out at 0.988.

Consider GGTTTGGGCC, for which the switch fluorescence ratio was 0.951.

As for CACACTGTCC, the switch fluorescence ratio stood at 1.05.

On to CATTAAGTAA, for which the switch fluorescence ratio worked out at 1.02.

Regarding ACGGCTCTCG, the switch fluorescence ratio turned out to be 0.997.

For the sequence GTTGGCGCTG, the switch fluorescence ratio was determined as 0.956.

GCCTCAGTGC: the switch fluorescence ratio came to 1.01.

As to TATACATTAA, the switch fluorescence ratio worked out at 1.03.

On to AAGACCGCCG, for which the switch fluorescence ratio was 1.09.

Regarding GGCAAGTATG, the switch fluorescence ratio was found to be 1.

Take ACGTACGCCA: the switch fluorescence ratio was determined as 1.51.

Take GGGACCCGGT: the switch fluorescence ratio stood at 1.05.

As to TATATTGGGT, the switch fluorescence ratio was 1.01.

Regarding CCCACTGGGC, the switch fluorescence ratio was determined as 1.05.

GGACTACGGT: the switch fluorescence ratio is 1.01.

Regarding GTGTGGTGGG, the switch fluorescence ratio was 1.01.

Regarding TCGCCATAGA, the switch fluorescence ratio stood at 1.06.

As to TCGGATTACT, the switch fluorescence ratio came to 1.21.

On to GGGGTCTTCG, for which the switch fluorescence ratio was 1.02.

As for GCGTTTTGAC, the switch fluorescence ratio was found to be 1.

Regarding ACGCGGGGTC, the switch fluorescence ratio is 1.01.

Take TTACGTCGT: the switch fluorescence ratio amounted to 0.983.

For CGTTACGAA, the switch fluorescence ratio was 1.07.

On to AGGGACCAAG, for which the switch fluorescence ratio is 0.948.

For AGATTTTTAG, the switch fluorescence ratio worked out at 0.967.

AATAATCGTA: the switch fluorescence ratio worked out at 0.95.

Take TCCTGACCGT: the switch fluorescence ratio came to 1.12.

Regarding CAGAGCTTCC, the switch fluorescence ratio is 2.27.

Consider TAACGTTGA, for which the switch fluorescence ratio came out at 1.01.

Regarding GCAGAAGAGG, the switch fluorescence ratio amounted to 1.

In the case of TCGGATCTGT, the switch fluorescence ratio is 0.952.

Regarding CAATTTAGGG, the switch fluorescence ratio came out at 0.98.

For ATTTTAAGGA, the switch fluorescence ratio was 1.05.

In the case of TTTCACTGG, the switch fluorescence ratio worked out at 1.

For the sequence GCAATCTGTG, the switch fluorescence ratio was found to be 1.24.

TGGGGACATA: the switch fluorescence ratio amounted to 1.01.

Take TCTATTAAGT: the switch fluorescence ratio is 1.01.

TTGGACTGAG: the switch fluorescence ratio was 1.02.

With GTCAGTGTGG, the switch fluorescence ratio stood at 1.01.

As for CCCCATTGTC, the switch fluorescence ratio turned out to be 1.04.

With TCTTCATTTC, the switch fluorescence ratio was determined as 0.983.

As to ACTTCCGGAA, the switch fluorescence ratio came to 2.56.

As to TTCGGTTTAG, the switch fluorescence ratio was determined as 1.01.

Consider GGGATCCCAA, for which the switch fluorescence ratio was 1.03.

For the sequence CTTCGGTCTG, the switch fluorescence ratio is 0.969.

Regarding CTCAGTATTA, the switch fluorescence ratio came to 1.05.

On to TGGGAGACA, for which the switch fluorescence ratio is 1.05.

For CTTTGGTTTT, the switch fluorescence ratio was found to be 1.03.

On to GGCAATGGCG, for which the switch fluorescence ratio amounted to 1.03.

For the sequence TAAGTGTGAT, the switch fluorescence ratio came to 1.01.

Take ACGTTGCTCC: the switch fluorescence ratio is 1.95.

On to ACACATGGAG, for which the switch fluorescence ratio was determined as 0.963.

Consider ATGGTGGT, for which the switch fluorescence ratio is 0.972.

For CGGCCGAAAT, the switch fluorescence ratio was determined as 1.07.

Turning to ATCGCGCGGG, the switch fluorescence ratio was determined as 1.01.

As to ACTATTGATT, the switch fluorescence ratio worked out at 1.02.

With AGATGGGTAA, the switch fluorescence ratio was 1.01.

As for CCTGATAAGT, the switch fluorescence ratio stood at 0.967.

AATTCTCGTA: the switch fluorescence ratio stood at 0.986.

On to TAAGGATAAA, for which the switch fluorescence ratio turned out to be 0.972.

As for AGCCTAGGGG, the switch fluorescence ratio worked out at 1.07.

Take CTCTAACAAT: the switch fluorescence ratio is 1.23.

Consider CGGAAGCCG, for which the switch fluorescence ratio amounted to 1.09.

Consider CTAAAGGGCC, for which the switch fluorescence ratio came to 1.03.

As to CAACCTATCG, the switch fluorescence ratio came to 1.05.

As to AGAGCGTAGT, the switch fluorescence ratio came to 0.986.

For AATGTGATGA, the switch fluorescence ratio is 0.996.

Regarding TCACGTCTGA, the switch fluorescence ratio worked out at 1.02.

With CTGAAGGAGA, the switch fluorescence ratio stood at 1.06.

For the sequence ACCTAGTCGC, the switch fluorescence ratio was determined as 1.11.

In the case of TCAAAGATAC, the switch fluorescence ratio was found to be 1.45.

As to AGCGACTTTA, the switch fluorescence ratio was found to be 1.03.

For AAACACTAAC, the switch fluorescence ratio worked out at 1.27.

In the case of GAGGGTTACA, the switch fluorescence ratio turned out to be 0.982.

Take CCAGCAGCTC: the switch fluorescence ratio amounted to 2.84.

On to GGTTTCATCT, for which the switch fluorescence ratio is 0.982.

For the sequence CCTGAGCAAT, the switch fluorescence ratio worked out at 1.86.

As to CCTAGGATGG, the switch fluorescence ratio was found to be 1.06.

For GAGTGGAACA, the switch fluorescence ratio stood at 0.993.

TTGGAAAAAA: the switch fluorescence ratio is 0.978.

Take GCACCGGGG: the switch fluorescence ratio turned out to be 1.03.

Consider CTTTCCGATC, for which the switch fluorescence ratio was 1.2.

For the sequence ACCTTGCGGT, the switch fluorescence ratio came to 0.981.

Turning to CTATTACAGT, the switch fluorescence ratio came to 0.986.

Regarding ATCACGGGGT, the switch fluorescence ratio worked out at 0.998.

CGGTGGATGG: the switch fluorescence ratio is 1.01.

For AACGTCAATT, the switch fluorescence ratio was 1.21.

Turning to ATGAACGCGC, the switch fluorescence ratio is 1.11.

With CGCGTCGCCC, the switch fluorescence ratio turned out to be 1.02.

Regarding CTATCTTCGC, the switch fluorescence ratio came to 1.04.

On to GCTGGGACTG, for which the switch fluorescence ratio was 1.03.

CGTTGTGGGC: the switch fluorescence ratio was 0.99.

As to AGTAATTCCG, the switch fluorescence ratio came out at 0.979.

As for CTATTGAGCG, the switch fluorescence ratio was determined as 1.02.

Take ACGCGCTCCC: the switch fluorescence ratio came out at 2.89.

Regarding GCGGTTGAGA, the switch fluorescence ratio is 1.01.

On to GATGTGCTAC, for which the switch fluorescence ratio came out at 1.09.

For the sequence CGGGGCCCAG, the switch fluorescence ratio was found to be 1.

Turning to TCTTCGGTT, the switch fluorescence ratio amounted to 1.03.

With TCCCCTTACT, the switch fluorescence ratio came to 1.43.

As for ATGACGATTT, the switch fluorescence ratio was determined as 0.962.

As for TGTAACAGGT, the switch fluorescence ratio is 1.03.

As for AGCTTGAAAA, the switch fluorescence ratio was found to be 1.01.

Regarding TACATTTATT, the switch fluorescence ratio amounted to 1.01.
